From the supplement of paper PMC10338343 come the findings set out here.

± gives the standard deviation. Only a part is listed here, and it is no random draw.

In the experiment the test system is MIWI (PIWIL1) piRISC loaded with piRNA #1 (30 nt). Kind of experiment: pre-steady-state target cleavage rate (min^-1); MIWI and MILI are mouse PIWI proteins and EfPiwi is from a freshwater sponge; tags in brackets are library labels; higher = faster piRNA-guided slicing of the target. Conditions: guide: piRNA #1 5'p-UGAGGUAGUAGGUUGUAUAGUAUCCAGAGG; auxiliary factor: 500 nM mouse GTSF1. In outline:
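The pre-steady-state cleavage rate was obtained by Cleave-'n-Seq with a burst-and-steady-state fit. A transcribed, DNA-blocked target RNA library (0.1 nM) was mixed with 1 nM active affinity-purified piRISC carrying one synthetic guide, with or without 500 nM GTSF1 partner protein, in HEPES–potassium acetate buffer at 33 °C for 0–8 or 0–960 min. Uncleaved targets were sequenced and normalised to depth and to weakly complementary targets, with three trials pooled and k3 capped at 0.0001 min^-1.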
GCUCUCGAUACUAUACAACCUACUACCACA: the “pre-steady-state target cleavage rate” value is 2.17 ± 0.15.

Consider GGAGACGAUACUAUACAACCUUCUACCUGA, for which the “pre-steady-state target cleavage rate” value was found to be 0.288 ± 0.044. Under GGAGUGGAUAGUAAACAACCUACUACCUCA stands 0.425 ± 0.036; under GGAGACGAAACUAUACAACCAACUACCUCA, 0.0629 ± 0.0094; under “GGUCUGGAUACUAUACUUGGAUGAUGGAGA [g15:g28:cont:t1A]”, less than 0.0001. For the sequence GGAGACCUAUGAUAUGUACCUACUACCUGCA, the “pre-steady-state target cleavage rate” value is less than 0.0001.

As for GGAGACCUUACUAUACAACCUACUACCUGCA, the “pre-steady-state target cleavage rate” value amounted to 1.21 ± 0.098. Under “GGAGACCUAUGAUAUGUUGGUACUACCUCG [g2:g10:cont:t1G]” stands less than 0.0001; under CCUCUCGAUACUAUACAACCUUCUACCUCA, 0.676 ± 0.035; under GGAGAGGAUACUAUACAACCUAGUACGUCA, 0.0287 ± 0.011. GGACUGCAUACUAUACAACCUACUAGCUCA: the “pre-steady-state target cleavage rate” value came out at 0.0482 ± 0.0093. As to GGAGACGAUACUAUACAACGUAGUACCUCA, the “pre-steady-state target cleavage rate” value amounted to 0.141 ± 0.026.

For GGACUGGAUACUAUUCAACCUAGUACCUCA, the “pre-steady-state target cleavage rate” value worked out at 0.334 ± 0.065. As for GGACUGGAUACUUUACAACCUACUAGCUCA, the figure is 0.00803 ± 0.0022; as for GGAGACGAUACUAUAUCAACCUACUACCUCA, 0.439 ± 0.058; as for CCUCUGGAUACUAUUCAACCUACUACCUGA, 0.698 ± 0.092. Under GGAGAGGAUACUAUACAACCUUCUACCUCA stands 0.573 ± 0.025. As for GGAGAGGAUUGUAUACAACCUACUACCUCA, the figure is 0.644 ± 0.046; as for GGAGACCAUACGAUACAACCUACUACCUCA, 1.53 ± 0.12.

With GGAGACCUAUCUAUACAACCUACUACCUAA, the “pre-steady-state target cleavage rate” value was found to be 0.844 ± 0.065.

For GGUCAGGAUACUAUACUACCUACUACCUCA, the “pre-steady-state target cleavage rate” value is 1.48 ± 0.1. As for CCUCUGGAUACUAUACAAGCUACUACCACA, the figure is 1.58 ± 0.1. Regarding “GGAGACCUAACUAUACAACCUACAUGGAGA [g8:g21:cont:t1A]”, the “pre-steady-state target cleavage rate” value turned out to be 0.00535 ± 0.0032.

Consider GGAGACCUAUGAUUACAACCUCACUACCUCA, for which the “pre-steady-state target cleavage rate” value turned out to be 0.00801 ± 0.0022.

Regarding GGAGACCUAACUAUACAACCUACUGACCUCA, the “pre-steady-state target cleavage rate” value came out at 0.623 ± 0.088.

With GCUCUGGAUACUAUACAACCUACUACCUACA, the “pre-steady-state target cleavage rate” value is 1.87 ± 0.13.

Regarding GCUCUGGAUACUAUAGAACCUACUUCCUCA, the “pre-steady-state target cleavage rate” value turned out to be 0.152 ± 0.034. Under GGAGACCUAUGAUAUGUUCCUACUACCCCA stands less than 0.0001; under CCUCUGGGUACUAUACAACCUACUACCUCA, 0.804 ± 0.041; under CCUCUGGAAACUAUACAACCUACUUCCUCA, 0.495 ± 0.058. GGAGAGGAUACUAUACUACCAACUACCUCA: the “pre-steady-state target cleavage rate” value worked out at 0.0289 ± 0.0042. On to GGAGUGGAAACUAUACAACCUACUACCUGA, for which the “pre-steady-state target cleavage rate” value is 0.482 ± 0.098.

Take GGAGACCUUACUAUUCAACCUUCUACCUCA: the “pre-steady-state target cleavage rate” value was 0.323 ± 0.028. Turning to GGAGACCUUACUAUAUAACCUACUACCUCA, the “pre-steady-state target cleavage rate” value is 1.29 ± 0.098.

With GGAGUGGAUACUAUACAACCUACUACCUUCA, the “pre-steady-state target cleavage rate” value is 0.943 ± 0.059. Turning to GGACUGGAUACUAUACUACCUAGUACCUCA, the “pre-steady-state target cleavage rate” value worked out at 0.307 ± 0.071.

Regarding GCUCUGGUUACUAUACAACCUACUUCCUCA, the “pre-steady-state target cleavage rate” value is 0.472 ± 0.041. With GGUCUGGAUACUAUACAACCUACUGCCUCA, the “pre-steady-state target cleavage rate” value turned out to be 1.03 ± 0.099. With GGAGACCUUACUAUACAACCUAUCUACCUCA, the “pre-steady-state target cleavage rate” value is 0.101 ± 0.018.
